# According to the supplement of paper PMC12645437, “Orthogonal IMiD-Degron Pairs Induce Selective Protein Degradation in Cells” (ACS Chemical Biology, 2025):
# The list shows a part of the results.
# Biological target: no compound (DMSO)
# Test: log2 fold change of degron read counts, EGFP-low vs EGFP+ sorted cells; higher = lower degron-EGFP level without compound (poor expression or instability)
# Settings: compound: DMSO control; 18 h
# 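Further: jurkat cells carrying a lentiviral library of mutant zinc finger degrons fused to EGFP plus mCherry, mCherry+ cells FACS sorted, degron abundance counted by next-generation sequencing.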
row,Sequence,log2 fold change of degron read counts
1,FSCNQCGRCFTQKGNLLRHIKL,-0.871
2,FYCNQCGRKFTQKGNLLRHIKL,-0.681
3,FWCDVCGAQFTQKGNLLRHIKL,-1.18
4,FVCPVCGAEFTQKGNLLRHIKL,-0.746
5,LLCEICGFWCTQKGNLLRHIKL,1.59
6,FMCEICGRNFTQKGNLLRHIKL,-1.9
7,FFCDICGALFTQKGNLLRHIKL,-0.0379
8,FGCPVCGACFTQKGNLLRHIKL,0.618
9,FLCEVCGASFTQKGNLLRHIKL,-1.81
10,FTCPICGHNFTQKGNLLRHIKL,0.0162
11,FWCNVCGATFTQKGNLLRHIKL,-0.763
12,LRCPICGFFCTQKGNLLRHIKL,2.47
13,FLCNQCGRQFTQKGNLLRHIKL,-0.847
14,FLCNICGATFTQKGNLLRHIKL,-1.28
